Laboratory results taken from article PMC12537989.
Results are given in words; binding and its absence hold for the method and conditions named. In cells and extracts the contact can be indirect. Some results given as binding are weak or reduced against the parent protein; the word gives no strength.

Protein sequences, listed by entry. Tags and fused reporters are not part of them.
UniProt P51150: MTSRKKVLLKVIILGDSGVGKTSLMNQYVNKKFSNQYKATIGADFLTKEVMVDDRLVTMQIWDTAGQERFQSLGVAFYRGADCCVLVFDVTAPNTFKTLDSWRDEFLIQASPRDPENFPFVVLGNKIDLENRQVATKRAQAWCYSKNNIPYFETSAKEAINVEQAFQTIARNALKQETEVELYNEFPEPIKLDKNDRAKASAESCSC
UniProt P63044: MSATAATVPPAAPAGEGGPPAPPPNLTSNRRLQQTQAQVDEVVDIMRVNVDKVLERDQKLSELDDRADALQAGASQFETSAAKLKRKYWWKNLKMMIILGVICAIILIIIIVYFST
UniProt P63024: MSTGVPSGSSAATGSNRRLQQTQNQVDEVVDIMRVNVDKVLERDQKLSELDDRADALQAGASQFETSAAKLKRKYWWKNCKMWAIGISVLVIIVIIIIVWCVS

Experiments:
Assay in all cases: co-IP; HEK293T cells co-transfected with SLC9A9 and the partner plasmid, collected 36 h after transfection; lysed in 50 mM Tris-HCl pH 7.4, 1 mM EDTA, 150 mM NaCl, 1% Triton; protein A/G Plus-Agarose and 3 ug antibody, 12 h at 4 C, 5 washes; immunoblot; some samples with amiloride treatment (interaction inhibited)
Rab7 (mouse) = Rab7 (mouse) (UniProt P51150)
Vamp2 (mouse) = Vamp2 (mouse) (UniProt P63044)
Vamp4 (mouse) = target: T1, Vamp4 (mouse) (UniProt O70480)
T1 sequence: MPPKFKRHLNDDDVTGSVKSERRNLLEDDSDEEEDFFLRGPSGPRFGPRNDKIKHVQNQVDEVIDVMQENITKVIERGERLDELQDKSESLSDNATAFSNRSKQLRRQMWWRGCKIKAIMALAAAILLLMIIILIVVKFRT

Vamp8 (mouse) = target: T2, Vamp8 (mouse) (UniProt O70404)
T2 sequence: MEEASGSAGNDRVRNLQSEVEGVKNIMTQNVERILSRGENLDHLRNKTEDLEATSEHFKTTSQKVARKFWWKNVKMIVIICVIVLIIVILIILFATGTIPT

Vamp3 (mouse) = Vamp3 (mouse) (UniProt P63024)
Rab5b (mouse) = target: T3, Rab5b (mouse) (UniProt P61021)
T3 sequence: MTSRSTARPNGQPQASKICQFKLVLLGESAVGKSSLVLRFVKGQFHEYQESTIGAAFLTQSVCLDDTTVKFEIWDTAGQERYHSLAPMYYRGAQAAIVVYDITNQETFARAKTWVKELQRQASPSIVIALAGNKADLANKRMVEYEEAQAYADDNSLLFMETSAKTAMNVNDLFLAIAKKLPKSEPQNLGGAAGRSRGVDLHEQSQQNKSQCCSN

Vps18 (mouse) = target: T4, Vps18 (mouse) (UniProt Q8R307)
T4 sequence: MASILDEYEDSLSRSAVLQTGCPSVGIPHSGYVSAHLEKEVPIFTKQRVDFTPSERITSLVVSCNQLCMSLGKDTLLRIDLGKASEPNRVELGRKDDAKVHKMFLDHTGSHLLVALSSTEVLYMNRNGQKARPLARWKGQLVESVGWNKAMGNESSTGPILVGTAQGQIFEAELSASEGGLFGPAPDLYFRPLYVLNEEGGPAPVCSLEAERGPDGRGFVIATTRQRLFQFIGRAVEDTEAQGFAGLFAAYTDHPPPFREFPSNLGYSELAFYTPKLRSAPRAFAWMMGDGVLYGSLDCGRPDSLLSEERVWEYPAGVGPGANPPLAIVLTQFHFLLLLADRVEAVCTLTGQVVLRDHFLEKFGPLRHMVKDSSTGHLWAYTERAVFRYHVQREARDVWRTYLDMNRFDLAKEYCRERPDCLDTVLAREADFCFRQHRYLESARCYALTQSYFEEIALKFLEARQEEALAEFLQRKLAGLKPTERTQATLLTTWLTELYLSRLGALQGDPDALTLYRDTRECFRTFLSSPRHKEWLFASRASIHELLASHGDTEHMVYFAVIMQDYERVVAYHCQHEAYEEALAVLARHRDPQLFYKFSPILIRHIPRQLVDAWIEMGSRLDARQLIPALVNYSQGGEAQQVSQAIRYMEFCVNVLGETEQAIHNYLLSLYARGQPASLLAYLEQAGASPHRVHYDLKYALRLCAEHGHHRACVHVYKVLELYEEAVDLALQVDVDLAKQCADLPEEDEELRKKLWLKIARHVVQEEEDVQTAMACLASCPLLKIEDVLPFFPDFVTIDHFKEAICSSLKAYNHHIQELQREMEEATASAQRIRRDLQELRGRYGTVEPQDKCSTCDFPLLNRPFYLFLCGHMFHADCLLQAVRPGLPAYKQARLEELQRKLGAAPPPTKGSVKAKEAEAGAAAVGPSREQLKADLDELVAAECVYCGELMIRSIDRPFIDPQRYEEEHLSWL

binding (Rab7 (mouse)): binds
binding (Vamp2 (mouse)): no binding
binding (Vamp4 (mouse)): no binding
binding (Vamp8 (mouse)): no binding
binding (Vamp3 (mouse)): no binding
binding (Rab5b (mouse)): no binding
binding (Vps18 (mouse)): binds
B1: Endosomal solute carrier family 9 member A9 (SLC9A9) (protein, UniProt Q8BZ00 1-644)
chain: MAGQLRFTSGKDEDHFQHQGAVELLAFNFLLILTILTIWLFKNHRFRFLHETGGAMVYGLIMGLILRYATAPTDIDSGTVYNCGNLFFSPSTLLVNITDQVYEYKYQREINQHNISPHQGNAILEKMTFDPEIFFNVLLPPIIFHAGYSLKKRHFFQNLGSILTYAFLGTAISCVVIGLIMYGFVKAMVHAGQLKSGDFHFTDCLFFGSLMSATDPVTVLAIFHELHVDPDLYTLLFGESVLNDAVAIVLTYSISIYSPKENPNAFDTAAFFQSVGNFLGIFAGSFAMGSAYAVVTALLTKFTKLREFPMLETGLFFLLSWSAFLSAEAAGLTGIVAVLFCGVTQAHYTYNNLSSDSKLRTKQLFEFMNFLAENVIFCYMGLALFTFQNHIFNALFILGAFLAIFVARACNIYPLSFLLNLGRKQKIPWNFQHMMMFSGLRGAIAFALAIRNTESQPKQMMFTTTLLLVFFTVWVFGGGTTPMLTWLQIRVGVDLDESLKEEPSSQQEANKLDKNMTKTESAQLFRMWYGFDHKYLKPILTHSGPPLTTTLPAWCGPVSRLLTSPQAYGEQLKEDDVECIVNQDELAMNYQEQSPSPSSPTTKLALDQKSSGQTPGKENIYEGDLGLGGYDLKLEQTRGQPQMD
